Assay results reported in the antibiotic and cytotoxicity screens of Wong et al. (2023).
This is one part of the list.

Assays:
HSkMC = human skeletal muscle cells; experiment: cytotoxicity call (relative viability < 0.9); details: 10 µM
HepG2 = experiment: cytotoxicity call (relative viability < 0.9); details: 10 µM
S. aureus RN4220 = experiment: growth inhibition call (relative growth <= 0.2); details: 50 µM

Structure (SMILES) | cytotoxicity call (HSkMC) | cytotoxicity call (HepG2) | growth inhibition call (S. aureus RN4220)
Cc1noc(C)c1NC(=O)N[C@H]1CC[C@H](CC(=O)NCCCN(C)C)O[C@@H]1CO | inactive | inactive | inactive
C[C@H](CO)N1C[C@H](C)[C@@H](CN(C)S(C)(=O)=O)Oc2cc(C#Cc3ccccc3)ccc2S1(=O)=O | inactive | inactive | inactive
C[C@@H]1CN([C@H](C)CO)S(=O)(=O)c2ccc(C#Cc3ccncc3)cc2O[C@H]1CN(C)C(=O)C1CCOCC1 | inactive | active | inactive
CCS(=O)(=O)Nc1ccc2c(c1)C(=O)N(C)[C@H]1CC[C@H](CC(=O)N3CCN(C)CC3)O[C@@H]1CO2 | inactive | inactive | inactive
O=C1OCC=C[C@H]2O[C@@]34C=CCN(CCN5CCOCC5)C(=O)[C@H]3N(CCCO)C(=O)[C@@H]4[C@@H]12 | inactive | inactive | inactive
C[C@H](CO)N1C[C@H](C)[C@H](CN(C)Cc2ccc(C(F)(F)F)cc2)Oc2ccc(NC(=O)Nc3ccc4c(c3)OCO4)cc2CC1=O | inactive | inactive | inactive
C[C@H](CO)N1C[C@H](C)[C@@H](CN(C)Cc2ccc(-c3ccccc3)cc2)Oc2c(NC(=O)Nc3ccccc3)cccc2C1=O | inactive | inactive | inactive
C=CCn1c(=O)n([C@H]2O[C@@H](CO)[C@@H](O)[C@@H]2O)c2[nH]c(N)nc(=O)c21 | inactive | inactive | inactive
C[C@H]1CCCC[C@]12NC(=O)NC2=O | inactive | inactive | inactive
COc1ccccc1CN(C)C[C@@H]1OCc2ccccc2-c2c(n(C)c3ccccc23)C(=O)N([C@@H](C)CO)C[C@@H]1C | inactive | inactive | inactive
COc1ccc(NC(=O)Nc2ccc3c(c2)C(=O)N([C@H](C)CO)C[C@H](C)[C@H](CN(C)CC2CCCCC2)O3)cc1 | inactive | inactive | inactive
